# Data taken from PubChem BioAssay AID1476 (National Center for Advancing Translational Sciences (NCATS), 2009).
# Several values for one entry are separate records, joined by “and”; a condition that tells them apart may be missing. Equal entries are not always repeated. In all, about 200,000 compounds went through this assay and about 4,500 (2.2%) were called active. Inconclusive means that the source gave no clear call. Such entries were picked first, then a sample of the others. The call rests on the fitted dose curve; in most records, active means well fitted inhibition curve with a large enough effect; inconclusive means small, poorly fitted or top-dose-only effect, or effect the other way; inactive means flat fitted curve, though single readings scatter. A potency beside an inconclusive call is a rough fit, not a confirmed value.
# Molecular target: Cruzipain (Trypanosoma cruzi) (UniProt P25779)
# Chain of UniProt P25779 (P25779 whole entry, looked up): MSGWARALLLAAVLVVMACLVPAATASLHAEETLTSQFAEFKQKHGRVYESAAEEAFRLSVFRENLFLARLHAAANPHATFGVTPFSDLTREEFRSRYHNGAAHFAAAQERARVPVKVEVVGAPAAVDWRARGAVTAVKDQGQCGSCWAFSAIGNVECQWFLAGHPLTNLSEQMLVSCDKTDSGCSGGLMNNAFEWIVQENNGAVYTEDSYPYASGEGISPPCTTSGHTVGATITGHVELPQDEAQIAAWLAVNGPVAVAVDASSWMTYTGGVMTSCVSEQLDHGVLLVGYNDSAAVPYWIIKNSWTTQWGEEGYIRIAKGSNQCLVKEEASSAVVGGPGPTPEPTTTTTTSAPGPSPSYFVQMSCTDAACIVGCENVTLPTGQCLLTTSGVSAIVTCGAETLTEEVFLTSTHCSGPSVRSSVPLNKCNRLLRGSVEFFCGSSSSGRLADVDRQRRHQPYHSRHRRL
# Experiment: qHTS Assay for Promiscuous and Specific Inhibitors of Cruzain (without detergent); further: nearly all actives have a fitted effect of over 40% in size;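 on max response, negative = inhibition: plate controls were enzyme without inhibitor for no effect and buffer without enzyme for full effect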
# Conditions: purified cruzain, Z-FR-AMC fluorescence, no detergent
# Method in brief: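 Purified cruzain at 1.5 nM, pre-incubated 15 min with compound at room temperature in 100 mM sodium acetate pH 5.5, 5 mM DTT, 0.00005% Triton X-100. Reaction started with 2 uM Z-FR-AMC; AMC fluorescence increase over 60 s gives rate.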
# Potency means the concentration at half of the fitted maximal effect; tags describe the fitted curve by direction and shape.
Structure (SMILES),Potency,"max response, negative = inhibition"
CCOC(=O)c1cnc2cc(-c3ccc(C(C)(C)C)cc3)nn2c1N,"inconclusive: 31.6 µM [inhibitor, single point]",
COc1ccc(Cl)cc1NC(=O)Cn1c(=O)n(Cc2cccs2)c(=O)c2cccnc21,"inconclusive: 25.1 µM [inhibitor, single point]",
COc1cccc(C(=O)NCC(=O)N/N=C/c2cccc(OC(=O)c3ccc([N+](=O)[O-])cc3)c2)c1,"inconclusive: 39.8 µM [inhibitor, single point]",
O=C(OCC(=O)N1CCN(C(=O)c2ccco2)CC1)c1cc(-c2ccccc2)nc2ccccc12,"inconclusive: 39.8 µM [activator, single point]",
Cc1cc2nnc(SCCCCN3C(=O)c4ccccc4C3=O)n2c2ccccc12,"inconclusive: 39.8 µM [activator, single point]",
CCOC(=O)c1c(NC(=O)C2C3C=CC(C3)C2C(=O)O)sc2c1CCC(CC)C2 (stereo not drawn),"inconclusive: 39.8 µM [activator, single point]",
CCn1c(=O)n(-c2ccc(F)cc2)c(=O)c2sc3ccccc3c21,,inactive: 12.5%
CCCCOc1ccc(CNC(=O)Cc2ccc(NC(=O)N3CCCCc4ccccc43)cc2)cc1,,inactive: 10.8%
Cc1cc(C)c2c(-c3ccc(-c4ccc(C(F)(F)F)cc4)cc3)cc(=O)oc2c1,active: 25.1 µM,
COC(=O)c1ccc(CNC(=O)COC(=O)C2CCC(C(C)(C)C)CC2)cc1 (stereo not drawn),"inconclusive: 39.8 µM [activator, single point]",
CN1CCN(c2ncc3nc(CCc4ccccc4)c(=O)n(C4CC4)c3n2)CC1,,inactive: -0.383%
CC(C)n1cc(/C=N\NC(=O)c2cc3c(ccc4ccccc43)o2)c2ccccc21,active: 5.01 µM,
CCc1ccc(CNC(=O)CN2C(=O)CSc3c2c(C)nn3-c2ccccc2)cc1,,inactive: -13.9%
CCC(CC)c1nn2c(=O)cc(COc3ccc(NC(=O)c4ccc(C)cc4)cc3)nc2s1,,inactive: -6.21%
CC(C)C(c1nnnn1Cc1cccs1)N1CCN(c2ccccc2)CC1 (stereo not drawn),,inactive: -0.0475%
Cc1cccc(S(=O)(=O)CC(=O)Nc2nc(-c3ccccc3)cs2)c1,"inconclusive: 39.8 µM [inhibitor, single point]",
C/C(=C/CCC(C)[C@H]1CC[C@@]2(C)C3=C(CC[C@]12C)[C@@]1(C)CCC(=O)C(C)(C)[C@@H]1CC3)C(=O)O (stereo partly drawn),active: 25.1 µM,
COc1ccc(-c2nc(CSc3nnc(C)n4c3cc3occc34)c(C)o2)cc1OC,,inactive: 18.3%
COc1cc(OC)c(NC(=O)N2CC3CCCN3c3ccccc32)cc1Cl (stereo not drawn),"inconclusive: 39.8 µM [inhibitor, single point]",
COc1cc(OC)cc(C(=O)N2CCN(C(=O)COc3ccccc3)CC2)c1,,inactive: 6.81%
COC(=O)[C@@]1(Cc2ccc(F)cc2)[C@H]2c3cc(C(=O)N4CCCC4)n(Cc4ccc(C(F)(F)F)nc4)c3C[C@H]2CN1C(=O)c1ccccc1,"inconclusive: 20 µM [activator, partial curve] and inconclusive: 12.6 µM [activator, partial curve]",

Structure (SMILES),Potency,"max response, negative = inhibition"
O=[N+]([O-])c1ccc(Cl)c(/C=N/N2CCN(C3c4ccccc4-c4ccccc43)CC2)c1,"inconclusive: 3.98 µM [inhibitor, single point]",
CCCSc1nsc(NC(=O)C(c2ccccc2)c2ccccc2)n1,"inconclusive: 25.1 µM [inhibitor, single point]",
COc1ccc(C2C(C(=O)Nc3cccnc3)=C(C)Nc3nc(-c4ccccc4)nn32)cc1OC (stereo not drawn),,inactive: 8.42%
Cc1ccc(-n2nnnc2SCC(=O)Nc2sc(C)c(C)c2C#N)cc1C,"inconclusive: 31.6 µM [inhibitor, single point]",
CC(=O)c1cccc(S(=O)(=O)N2CCN(c3nc4cc(C)cc(C)c4cc3C#N)CC2)c1,active: 15.8 µM,
Cc1ccc(N2CCn3c2nc2c3c(=O)n(CCCc3ccccc3)c(=O)n2C)cc1C,,inactive: -0.352%
Cc1nn2c(C)c(C(=O)NCc3ccco3)cnc2c1-c1ccccc1,,inactive: 3.11%
O=C(CCN1CCCCC1)c1csc2ccccc12,active: 2.51 µM,
O=c1[nH]c(NCCCO)nc2c1C1(CCCC1)Cc1ccccc1-2,"inconclusive: 25.1 µM [activator, single point]",
COc1cccc(C2=Nn3c(nnc3-c3ccccc3O)SC2)c1,"inconclusive: 31.6 µM [inhibitor, single point]",
CCN(CC)c1nc2ccccc2nc1C(=O)Nc1cc(OC)c(OC)c(OC)c1,"inconclusive: 39.8 µM [activator, single point]",
COc1cc(OC)c(NC(=O)CCCn2nc(C)c3c(C)n(-c4ccccc4)nc3c2=O)cc1Cl,"inconclusive: 39.8 µM [activator, single point]",
COc1cccc2c1C(=O)c1c(O)c3c(c(O)c1C2=O)C[C@](O)(C(=O)CO)C[C@H]3O[C@@H]1C[C@H](N)[C@H](O)[C@H](C)O1,,inactive: -13.7%
COc1ccc(CNC(=O)CCCN2C(=O)COc3ccc(C)cc32)cc1,"inconclusive: 20 µM [activator, partial curve, poor fit]",
COc1ccc(S(=O)(=O)Nc2ccc(S(=O)(=O)Nc3ccc(F)cc3)cc2)cc1C,"inconclusive: 31.6 µM [activator, single point]",
Cc1ccc(C(=O)NCC(=O)OCC(=O)c2cc(C)n(Cc3ccco3)c2C)cc1,,inactive: -0.849%
CC(=O)NC1CC2CCCC(C1)N2S(=O)(=O)c1cccc(F)c1 (stereo not drawn),"inconclusive: 6.31 µM [inhibitor, single point]",
COc1ccc(/C=N/NC(=O)c2ccncc2)cc1CSc1nc2ccccc2s1,"inconclusive: 25.1 µM [activator, single point]",
Cn1c(=O)oc2cc(S(=O)(=O)N3CCCC(C(=O)NCc4ccc(F)cc4)C3)ccc21 (stereo not drawn),"inconclusive: 6.31 µM [activator, single point]",
Cc1ccccc1NC(=O)CNC(=O)c1ccc(C(F)(F)F)cc1,"inconclusive: 31.6 µM [inhibitor, single point]",
O=C(Nc1nc(=O)c2ccccc2s1)c1ccc(F)cc1,"inconclusive: 15.8 µM [inhibitor, partial curve]",

Structure (SMILES),Potency,"max response, negative = inhibition"
CCCCn1c(SCC(=O)N2CCC(C(=O)OCC)CC2)nc2cc(S(N)(=O)=O)ccc21,"inconclusive: 39.8 µM [activator, single point]",
COc1ccc(O)c(/C=c2/sc3nc4cc(C)c(C)cc4n3c2=O)c1,"inconclusive: 25.1 µM [inhibitor, partial curve]",
C=CCN1C(=O)C(O)(CC(=O)c2ccc(Cl)cc2)c2ccccc21 (stereo not drawn),active: 12.6 µM,
O=C1c2sc3nc4ccccc4n3c2C(=O)N1c1ccccc1Cl,"inconclusive: 31.6 µM [inhibitor, single point]",
CCOc1ccc(NC(=O)CSc2nc3ccccc3c(=O)n2CCCC(=O)N2CCCC2)cc1,"inconclusive: 31.6 µM [activator, single point]",
c1ccc2sc(C3CCN(Cc4nnnn4Cc4ccc5c(c4)OCO5)CC3)nc2c1,"inconclusive: 39.8 µM [activator, single point]",
O=S(=O)(c1ccccc1)c1nc(-c2ccco2)oc1NCc1ccccc1,active: 25.1 µM,
COc1ccc2oc(=O)c(C(=O)NCCc3c(C)[nH]c4ccc(F)cc34)cc2c1,,inactive: -22.4%
COC(=O)c1cc(OC)c(OC)cc1NC(=O)c1c(-c2ccccc2Cl)noc1C,"inconclusive: 31.6 µM [activator, single point]",
Cc1ccc(C)c(N2CCN(c3ncnc4c3cnn4-c3ccccc3)CC2)c1,"inconclusive: 25.1 µM [inhibitor, single point]",
CC1CCN(C(=O)CN(c2ccc(Oc3ccccc3)cc2)S(C)(=O)=O)CC1,"inconclusive: 39.8 µM [activator, single point]",
COc1ccc(NC(=O)CCCSc2nc(-c3ccco3)cc(C(F)(F)F)n2)cc1OC,"inconclusive: 25.1 µM [activator, partial curve] and inconclusive: 31.6 µM [activator, single point]",
Cc1cccc(C)c1Nc1nn2c(=O)c3cc4c(cc3nc2s1)OCO4,,inactive: -8.55%
Brc1ccc2c(c1)OCCOCCOc1cc(Br)ccc1OCCOCCOCCO2,"inconclusive: 25.1 µM [activator, single point]",
O=C(NNC(=O)c1cc2cc3ccccc3nc2s1)c1cccc(Cl)c1,active: 25.1 µM,
CCCCn1c(O)c(/C=C/C=Nc2ccccc2)c(=O)[nH]c1=O,"inconclusive: 31.6 µM [inhibitor, single point]",
CCn1cc(C(=O)NCc2ccco2)c(=O)c2cc(S(=O)(=O)N3CCc4ccccc4C3)ccc21,"inconclusive: 20 µM [activator, partial curve]",
CCc1ccc(OCC(=O)NCCN(C)C)c(Br)c1,,inactive: -3.21%
CCOc1ccc(CCNC(=O)CN2CCN(Cc3ccc(Cl)cc3)C2=O)cc1OCC,"inconclusive: 31.6 µM [activator, single point]",
CC(=O)c1ccc(NS(=O)(=O)c2cccc(S(=O)(=O)c3ccc(Cl)cc3)c2)cc1,"inconclusive: 10 µM [activator, partial curve]",
COc1ccc(C2CC(=O)n3nc(C45CC6CC(CC(C6)C4)C5)nc3S2)cc1OC (stereo not drawn),"inconclusive: 39.8 µM [activator, single point]",
